# Assay results: PubChem BioAssay AID2451 (National Center for Advancing Translational Sciences (NCATS), 2010)
# Values joined by “and” are separate entries in the source; they are usually repeats but may differ in a detail not shown here. Identical values can stand only once. Hit rate of the full screen: of about 290,000 compounds, about 2,100 (0.72%) were called active. This list was built around the results that the source calls inconclusive (neither active nor inactive); the mix of calls is not that of the screen. Calls come from the whole dose curve; as a rule, active = well fitted inhibition curve with a large enough effect; inconclusive = small, poorly fitted or top-dose-only effect, or effect the other way; inactive = flat fitted curve, though single readings scatter. A potency beside an inconclusive call is a rough fit, not a confirmed value.
# Target: Fructose-bisphosphate aldolase (Giardia intestinalis (strain ATCC 50803 / WB clone C6)) (UniProt A8B2U2)
# Assay: qHTS Assay for Inhibitors of Fructose-1,6-bisphosphate Aldolase from Giardia Lamblia; note: nearly all actives have a fitted effect of over 55% in size
# Conditions: purified Giardia FBPA; activity, negative = inhibition: at 59.6 µM (top of the series) unless noted
# How it was run: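 Giardia FBPA (40 nM reagent) was preincubated 10 min at RT with compound (up to 57.5 uM final), then substrate plus GAPDH/TPI/NAD/arsenate coupling system with diaphorase/resazurin was added; resorufin fluorescence (525/598 nm) was read after 20 min.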
# % is set by controls: 0 for no effect and ±100 for the full control effect; potency is the fitted concentration of half-maximal effect; tags give direction and shape of the fitted curve.
# Sequence of UniProt A8B2U2 (A8B2U2 whole entry, looked up): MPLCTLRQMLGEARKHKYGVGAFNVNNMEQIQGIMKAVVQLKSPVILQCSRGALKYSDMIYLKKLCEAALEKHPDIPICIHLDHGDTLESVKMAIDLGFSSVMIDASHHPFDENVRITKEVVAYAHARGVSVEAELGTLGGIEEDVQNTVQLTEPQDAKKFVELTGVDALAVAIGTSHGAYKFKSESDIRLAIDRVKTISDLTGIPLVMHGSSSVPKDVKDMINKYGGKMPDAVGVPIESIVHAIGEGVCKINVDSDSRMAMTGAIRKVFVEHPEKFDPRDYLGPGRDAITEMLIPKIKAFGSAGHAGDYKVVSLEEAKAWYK
Structure (SMILES),Potency,"activity, negative = inhibition"
CN1CCc2c(sc3c2c(=O)n(-c2ccccc2)c2n[nH]c(=S)n32)C1,"inconclusive: 12.6 µM [inhibitor, partial curve]",–
COc1ccc(OC)c(CN2CCN(C(=O)Cc3ccccc3)CC2)c1,"inconclusive: 7.08 µM [inhibitor, partial curve]",–
Fc1cccc(Cl)c1CNCCCSc1ncccn1,"inconclusive: 22.4 µM [inhibitor, partial curve]",–
N#Cc1ccc(C2N=C(c3ccccc3)NO2)cc1 (stereo not given),inactive,–
O=[N+]([O-])c1ccc(OCCN2CCNCC2)cc1,"inconclusive: 19.9 µM [inhibitor, single point]",–
CN1CCc2c(sc(N)c2C(N)=O)C1,"inconclusive: 31.6 µM [inhibitor, partial curve]",–
C#CCSc1nnc(-c2ccccc2)c(=O)[nH]1,"inconclusive: 31.5 µM [inhibitor, single point]",–
COC(=O)/C=C1\N/C(=N\c2nc(C)cc(C)n2)N(c2ccc(C)c(C)c2)C1=O,"inconclusive: 4.46 µM [inhibitor, full curve]",–
CCN(CC)S(=O)(=O)c1ccc(C(=O)Nc2nnc(-c3ccco3)o2)cc1,"inconclusive: 15.8 µM [inhibitor, partial curve]",–
CC(=O)Oc1ccc(C2C3=C(CC(C)(C)CC3=O)Nc3cc4c(cc32)OCCO4)cc1 (stereo not given),inactive,–
CC(=O)Nc1ccc2cc3ccc(NC(C)=O)cc3nc2c1,"inconclusive: 5 µM [inhibitor, full curve, poor fit]",–
O=C(C1CCN(S(=O)(=O)c2cccc3cccnc23)CC1)N1CCN(c2ccccn2)CC1,inactive,–
CCCCCCCCN=C(N)c1ccc(C(=O)OCC2CCCCC2)cc1,inactive,–
O=C(OCc1ccc(COC(=O)c2cccnc2Cl)cc1)c1cccnc1Cl,inactive,–
CCSc1nnc(NC(=O)CSc2nnc(CNC(=O)c3ccccc3F)o2)s1,"inconclusive: 17.7 µM [activator, partial curve]",–
Cc1noc(C)c1-c1nc(NCc2cccs2)c2ccccc2n1,inactive,–
Nc1ccc2nc(CCCCc3nc4ccccc4[nH]3)[nH]c2c1,active: 12.6 µM,–
Nc1ccccc1C(=O)/C=C\c1ccc2c(c1)OCO2,–,inactive: 1.17% [at 12.9 µM]
COc1cc2c(cc1OC)C(C(C(=O)N(CCc1ccc(OC)c(OC)c1OC)CCc1ccc(OC)c(OC)c1OC)c1ccccc1)=NCC2 (stereo not given),"inconclusive: 15.8 µM [inhibitor, single point]",–
CC(C)N1CCN(S(=O)(=O)c2ccccc2)CC1,"inconclusive: 20 µM [inhibitor, single point]",–
CC(C)C[C@H]1CN=C(Nc2ccccc2)N1CC1CCCC1,inactive,–
Cc1n[nH]c(=S)n(/N=C/c2ccccn2)c1=O,"inconclusive: 19.9 µM [inhibitor, partial curve]",–
CCCCNCC#CCOc1cc(C)ccc1C(C)C,"inconclusive: 12.6 µM [inhibitor, partial curve]",–
Cc1ccc(S(=O)(=O)NCC23C=CC(O2)C2C(=O)N(c4ccccc4)C(=O)C23)cc1 (stereo not given),inactive,–

Structure (SMILES),Potency,"activity, negative = inhibition"
Cc1[nH][nH]c(=O)c1C(c1ccc(-c2ccc(Cl)c(C(=O)O)c2)o1)c1c(C)[nH][nH]c1=O,active: 7.06 µM,–
CC1(C(=O)NC(=S)N(CCC#N)Cc2cccnc2)CC1(Cl)Cl (stereo not given),active: 17.7 µM,–
COC(=O)CCC(=O)OC1(C)C(=O)C=C2C=C(C3CC3)N(CCc3c[nH]c4ccccc34)C=C2C1=O (stereo not given),"inconclusive: 397 nM [inhibitor, full curve] and inconclusive: 500 nM [inhibitor, full curve]",–
C=CCc1c(C)nc(SCc2ccccc2)[nH]c1=O,"inconclusive: 35.5 µM [inhibitor, partial curve]",–
CCOc1ccc2nc(NC(=O)CN3CCN(CC)CC3)sc2c1,"inconclusive: 3.16 µM [inhibitor, full curve]",–
O=S(=O)(Nc1ncnc2sc3c(c12)CCC3)c1ccc2ccccc2c1,"inconclusive: 9.98 µM [activator, partial curve]",–
CCOc1ccc(Cc2nn[nH]n2)cc1,"inconclusive: 12.6 µM [inhibitor, partial curve]",–
Clc1ccc(N2CCN(Cc3ccc(Br)o3)CC2)cc1,"inconclusive: 39.8 µM [inhibitor, single point]",–
Cc1ccc2nc(N(CCCN(C)C)C(=O)c3cc(-c4cccs4)nc4ccccc34)sc2c1,"inconclusive: 28.2 µM [inhibitor, partial curve]",–
O=C1NC(=O)/C(=C\c2ccc(N3CCOCC3)o2)N1,"inconclusive: 19.9 µM [inhibitor, partial curve]",–
CC(C)N(CCNC(=O)c1oc(=O)c2ccccc2c1-c1ccccc1)Cc1ccco1,inactive,–
C=CCc1cc(OC)ccc1OCCOCCN1CCc2ccccc2C1,"inconclusive: 14.1 µM [inhibitor, partial curve]",–
O=C(c1ccccn1)N1CC=C(c2ccccc2)CC1,"inconclusive: 15.8 µM [inhibitor, single point]",–
COc1cccc(/C=N/NC(=O)C(=O)NCc2cccnc2)c1O,"inconclusive: 2.23 µM [inhibitor, full curve, poor fit]",–
CC(C)C(C(=O)O)N1C(=O)/C(=C/C=C/c2ccco2)SC1=S (stereo not given),"inconclusive: 14.1 µM [inhibitor, partial curve]",–
COC(=O)CCC(=O)OC1(C)C(=O)C=C2C=C(C3CC3)N(c3cccc(C#N)c3)C=C2C1=O (stereo not given),"inconclusive: 706 nM [inhibitor, full curve] and inconclusive: 1.58 µM [inhibitor, full curve]",–
CCO/C=C1/C(=O)N(Cc2ccccc2)C(=O)c2ccccc21,"inconclusive: 14.1 µM [inhibitor, partial curve]",–
NC(=S)N=Nc1ccc(NN=C(N)N)cc1,active: 10 µM,–
Cc1ccc(C)c2[nH]c(=O)c(C(c3nnnn3Cc3ccccc3)N3CCc4ccccc4C3)cc12 (stereo not given),"inconclusive: 14.1 µM [inhibitor, partial curve, poor fit]",–
O=C(Nc1nc2ccccc2s1)c1ccc([N+](=O)[O-])o1,inactive,–
Cc1cc(C)c2oc(C(=O)Nc3ccc(S(=O)(=O)Nc4nccc(C)n4)cc3)cc(=O)c2c1,"inconclusive: 17.8 µM [inhibitor, partial curve]",–
COc1ccc(CN(C)S(=O)(=O)c2nnc(NC(=O)c3cccc(F)c3)s2)cc1,"inconclusive: 22.4 µM [inhibitor, partial curve]",–
CSc1nccn1C(=O)c1ccccc1[N+](=O)[O-],active: 28.2 µM,–
S=c1[nH]ncn1/N=C/c1ccccc1,"inconclusive: 1.77 µM [inhibitor, full curve]",–

Structure (SMILES),Potency,"activity, negative = inhibition"
CC1=C(CC/C(C)=N/NC(N)=S)C(C)(C)CCC1,"inconclusive: 6.29 µM [inhibitor, full curve]",–
COc1ccc(C(=O)N/N=C(\C)c2ccccn2)cc1OC,"inconclusive: 39.8 µM [inhibitor, single point]",–
CC(C)[C@H](NC(=O)C1CC(=O)N(c2ccc3c(c2)OCO3)C1)C(=O)NC1CCCC1 (stereo not given in full),"inconclusive: 39.8 µM [inhibitor, single point]",–
O=C(O)Cc1csc(-c2cccc(Oc3ccccc3)c2)n1,"inconclusive: 17.7 µM [activator, single point]",–
COC/C=C/C1=CC2=CC(=O)C(C)(OC(=O)c3cnc4ccccc4n3)C(=O)C2=CN1Cc1ccc2c(c1)OCO2 (stereo not given),"inconclusive: 1.99 µM [inhibitor, partial curve]",–
CCc1c(C)[nH]c2ccc(OC)cc2c1=S,"inconclusive: 14.1 µM [inhibitor, partial curve]",–
O=[N+]([O-])c1ccccc1CN1CCN(S(=O)(=O)Cc2ccccc2)CC1,"inconclusive: 28.2 µM [inhibitor, partial curve]",–
CC1(C)CC(=O)C(C(N)=NC(=O)c2ccccc2)=C(O)C1,inactive,–
CCOc1ccc(C(=O)NC(=S)Nc2cccnc2)cc1,"inconclusive: 8.89 µM [inhibitor, partial curve]",–
O=C(O)CN1C(=O)COc2ccc(S(=O)(=O)N3CCCCCC3)cc21,inactive,–
COCCNC(=O)C(c1ccc(OC)cc1)N(C(=O)Cn1nnc2ccccc21)c1cccnc1 (stereo not given),"inconclusive: 15.8 µM [inhibitor, single point]",–
CN(C)S(=O)(=O)c1cccc(NC(=S)Nc2cc(Cl)cc(Cl)c2)c1,"inconclusive: 17.7 µM [inhibitor, single point]",–
O=C(NN=C1CCCCCCC1)c1ccc2ccccc2n1,inactive,–
O=C(C[n+]1cccc(C(=O)Nc2ccccc2)c1)c1ccc([N+](=O)[O-])cc1,inactive,–
COC(=O)c1ccc(NC(=O)Nc2ccc(F)cc2F)cc1,inactive,–
CC(C)(C)c1ccc(NC(=O)c2ccsc2)cc1,"inconclusive: 15.8 µM [inhibitor, partial curve]",–
COc1ccc(OC)c(CN2CCC(CNC(=O)Nc3cccc(Cl)c3)CC2)c1,"inconclusive: 44.6 µM [inhibitor, single point]",–
CC(C)(C)OC(=O)N/N=C\c1ccc[nH]1,"inconclusive: 35.4 µM [inhibitor, single point]",–
O=c1[nH]c2ccccc2c2oc(CCl)nc12,"inconclusive: 31.5 µM [inhibitor, single point]",–
Cc1ccc(C(=O)N2CCN(C(=O)c3ccc(C)cc3)C2)cc1,inactive,–
Cc1ccc(SCC(=O)Nc2cccc(C)c2)cc1,inactive,–
Cc1nc2ccccc2cc1C(=O)N(C)Cc1ccccc1,inactive,–
